From the supplement of paper PMC8183993
Where a name gives a salt, the structure may show the parent alone. ± gives the standard deviation of the averaged measurements. Whole data set: some 3,200 compounds, median “nuclei count (viability) relative to DMSO” near 99, cut for the lowest 2% near 16. Some of the results follow.

Tested on: U2OS
Test: nuclei count (viability) relative to DMSO (% of DMSO); higher = more viable cells
Conditions: 10 µM; 24 h
Protocol: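 Primary image-based screen in U2OS cells: compounds at 10 uM for 24 h, then a 1 h o-propargyl-puromycin (OPP) pulse, click labelling, and high-throughput microscopy. Mean cytoplasmic OPP intensity and nuclei count were normalised to DMSO wells within each plate (DMSO = 100) and averaged over triplicate plates.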

| SMILES | nuclei count |
| --- | --- |
| CC(=O)OCOC(c1cc([N+](=O)[O-])ccc1Oc1ccc(Br)cc1)P(=O)(OCOC(C)=O)OCOC(C)=O (stereo not drawn) | 102 |
| CN(C)Cc1cccc(N=C(c2ccccc2)c2c(O)[nH]c3cc(C(=O)N(C)C)ccc23)c1 | 73.2 |
| C[C@@H]1C[C@H]2[C@@H]3C[C@H](F)C4=CC(=O)C=C[C@]4(C)[C@@]3(Cl)[C@@H](O)C[C@]2(C)[C@H]1C(=O)COC(=O)C(C)(C)C [Clocortolone pivalate] | 115 |
| CC1(C)C[C@@H]1C(=O)N/C(=C\CCCCSC[C@H](N)C(=O)O)C(=O)O [Cilastatin sodium] | 96.7 |
| CC1(C)C[C@@H]1C(=O)N/C(=C\CCCCSC[C@H](N)C(=O)O)C(=O)O [Cilastatin] | 91.5 |
| Cc1c(C)c2c(c(C)c1OC(=O)CCC(=O)O)CC[C@@](C)(CCC[C@H](C)CCC[C@H](C)CCCC(C)C)O2 [Tocopherol succinate] | 102 |
| Oc1cc2c(cc1O)CN(C(=S)NCCc1ccc(Cl)cc1)CCC2 [Capsazepine] | 98.3 |
| CCCCCCC(=O)OC1CC(C)(C)NC(C)(C)C1 [TMPH hydrochloride] | 102 |
| O=C1Cc2c([nH]c3ccc(Br)cc23)-c2ccccc2N1 [Kenpaullone] | 64 ± 3 |
| COc1ccc(CCN2CCN(CCCc3ccccc3)CC2)cc1OC | 110 |
| CC[C@H]1OC(=O)C[C@@H](O)[C@H](C)[C@@H](O[C@@H]2O[C@H](C)[C@@H](O)[C@H](N(C)C)[C@H]2O)[C@@H](CCN2C[C@H](C)C[C@H](C)C2)C[C@@H](C)C(=O)/C=C/C(C)=C/[C@@H]1CO[C@@H]1O[C@H](C)[C@@H](O)[C@@H](OC)[C@H]1OC [Tilmicosin] | 106 |
| CNCCCC12CCC(c3ccccc31)c1ccccc12 [Maprotiline hydrochloride] | 91.9 ± 2 |
| CCc1c(O)cc(O)c(C(=O)c2ccc(OCCN3CCOCC3)c(OC)c2)c1CC(=O)N(CCOC)CCOC | 78.1 |
| NCC1CCN(c2nccc(-c3ccc4ccccc4c3)n2)CC1 | 21.1 |
| Cc1cn2cc(C(=O)N(C)CCO)cc(N[C@@H]3CCOc4cccc(C)c43)c2n1 | 104 |
| Cc1coc2c1C(=O)C(=O)c1c-2ccc2c1CCCC2(C)C [Tanshinone IIA] | 101 |
| CC(C)(C)n1nc(-c2cccc3ccccc23)c2c(N)ncnc21 [1-Naphthyl PP1] | 89.4 |
| COc1ccc2c(c1)c(CC(=O)N1CCOCC1)c(C)n2C(=O)c1ccc(Cl)cc1 | 100 |
| OC(c1cc(C(F)(F)F)nc2c(C(F)(F)F)cccc12)C1CCCCN1 (stereo not drawn) [Mefloquine hydrochloride] | 10.7 |
| C[C@@H]1O[C@@H](OC[C@H]2O[C@@H](Oc3c(-c4ccc(OCCO)c(OCCO)c4)oc4cc(OCCO)cc(O)c4c3=O)[C@H](O)[C@@H](O)[C@@H]2O)[C@H](O)[C@H](O)[C@H]1O [Troxerutin] | 106 |
| CCN(CC)C(=O)/C(C#N)=C/c1cc(O)c(O)c([N+](=O)[O-])c1 [Entacapone] | 102 |
| C[C@]12C=CC(=O)C=C1CC[C@H]1[C@@H]3C[C@@H](O)[C@](O)(C(=O)CO)[C@@]3(C)C[C@H](O)[C@@]12F [Triamcinolone (Aristocort)] | 87.1 |
| C[C@]12C=CC(=O)C=C1CC[C@H]1[C@@H]3C[C@@H](O)[C@](O)(C(=O)CO)[C@@]3(C)C[C@H](O)[C@@]12F [Triamcinolone] | 95.5 |
| CC1(C)O[C@@H]2C[C@H]3[C@@H]4CCC5=CC(=O)CC[C@]5(C)[C@@]4(F)[C@@H](O)C[C@]3(C)[C@]2(C(=O)CCl)O1 [Halcinonide] | 98.5 |
| CCN(CCN(C)C)C(=O)CNCc1cc(C(N)=O)ccn1 | 97.8 |

| SMILES | nuclei count |
| --- | --- |
| CC(=O)O[C@H]1C[C@@H]2CC[C@@H]3[C@H](CC[C@@]4(C)[C@H]3C[C@H]([N+]3(C)CCCCC3)[C@@H]4OC(C)=O)[C@@]2(C)C[C@@H]1N1CCCCC1 [Vecuronium bromide] | 98.3 |
| CC(=O)O[C@H]1C[C@@H]2CC[C@@H]3[C@H](CC[C@@]4(C)[C@H]3C[C@H]([N+]3(C)CCCCC3)[C@@H]4OC(C)=O)[C@@]2(C)C[C@@H]1N1CCCCC1 [Vecuronium Bromide] | 108 |
| CCCCCCCC/C=C\CCCCCCCC(=O)NCCO [Oleylethanolamide] | 107 |
| CCCCCCCC/C=C\CCCCCCCC(=O)NCCO [N-Oleoylethanolamide] | 105 |
| CC(=O)NCC(=O)N[C@H](CCC(=O)O)C(=O)O [N-Acetylglycyl-D-glutamic acid] | 105 |
| C[C@@H](O)[C@H]1C(=O)N2C(C(=O)O)=C(S[C@@H]3CN[C@H](C(=O)N(C)C)C3)[C@H](C)[C@H]12 [Meropenem] | 105.9 ± 0.61 |
| O=c1c(-c2ccc(O)cc2)coc2cc(O)ccc12 [Daidzein] | 109 |
| O=C(O)CCCCC(CCSCc1ccccc1)SCc1ccccc1 (stereo not drawn) | 109 |
| CC1(C)CC[C@]2(C(=O)O)CC[C@]3(C)C(=CC[C@@H]4[C@@]5(C)CC[C@H](O)C(C)(C)[C@@H]5CC[C@]43C)[C@@H]2C1 [Oleanolic Acid (Caryophyllin)] | 109 |
| CC(C)NC[C@H](O)COc1cccc2ccccc12 [(S)-propranolol hydrochloride] | 103 |
| CC(C)NC[C@H](O)COc1cccc2ccccc12 [(S)-(-)-Propranolol hydrochloride] | 90.8 |
| CC(C)(C)c1nc(-c2cccc(NS(=O)(=O)c3c(F)cccc3F)c2F)c(-c2ccnc(N)n2)s1 | 106.4 ± 0.54 |
| CC(=O)N(OCc1ccccc1)[C@H]1c2cc(C#N)ccc2OC(C)(C)[C@H]1O | 97.1 |
| C[C@H]1O[C@@H](n2cc(F)c(=O)[nH]c2=O)[C@H](O)[C@@H]1O [Doxifluridine] | 94.4 |
| N[C@@H](Cc1cc(CP(=O)(O)O)cc(-c2ccccc2Cl)c1)C(=O)O | 100 |
| OCC1OC(n2cnc3c(NC4CCCC4)nc(Cl)nc32)C(O)C1O (stereo not drawn) [2-Chloro-N6-cyclopentyladenosine] | 93.5 |
| OCCN1CCN(CCCN2c3ccccc3C=Cc3ccccc32)CC1 [Opipramol dihydrochloride] | 113 |
| COc1cccc(Nc2c(C(N)=O)cnc3c(C)cc(S(=O)(=O)c4cccc(C(=O)N(C)C)c4)cc23)c1 | 109 |
| O=C(O)C=C1CCCc2ccccc2C1O (stereo not drawn) | 103 |
| CC(=O)CCCCn1c(=O)c2c(ncn2C)n(C)c1=O [Pentoxifylline] | 94.1 |
| CN1C(=O)OC(C)(C)C1=O [Trimethadione] | 95.3 |
| CN(C/C=C/c1ccccc1)Cc1cccc2ccccc12 [Naftifine hydrochloride] | 110 |
| COc1cc2c(cc1OCCCN1CCCC1)N=C(N)C21CCC1 | 94.7 |
| O=C(c1ccc(/C=C/c2n[nH]c3ccccc23)cc1)N1CCNCC1 | 41.9 |
| C/C(=C\C(=O)Nc1ccccc1C(=O)O)c1ccc2ccccc2c1 | 95.4 |

| SMILES | nuclei count |
| --- | --- |
| C[C@]12CC[C@@H](O)C[C@@H]1CC[C@@H]1[C@@H]2CC[C@]2(C)C=CC[C@@H]12 [3a, 5a-Androstenol] | 90.5 |
| Cc1ccc(-n2sc(=O)n(Cc3ccc(F)cc3)c2=O)cc1 | 99.8 |
| O=C(NCCN1CCOCC1)c1ccc(Cl)cc1 [Moclobemide] | 90.8 |
| Cc1cc(Cl)ccc1OCCCC(=O)NO [Droxinostat] | 103 |
| CN(C)CCOc1ccc(-c2nc(-c3ccncc3)c(-c3ccc4c(c3)CC/C4=N\O)[nH]2)cc1 | 73.6 ± 4.5 |
| CN(C)CCCSC(=N)N [Dimaprit dihydrochloride] | 102 ± 1.6 |
| C[C@H](Cc1cc2c(c(C(N)=O)c1)N(CCCO)CC2)NCCOc1ccccc1OCC(F)(F)F [Silodosin (Rapaflo)] | 94.1 |
| C=CCNC(=O)c1cc([N+](=O)[O-])cc2c(=O)[nH]c(Nc3ccc(Cl)c(Cl)c3)nc12 | 96.4 |
| Cc1onc(-c2c(F)cccc2Cl)c1C(=O)N[C@@H]1C(=O)N2[C@@H]1SC(C)(C)[C@@H]2C(=O)O [Flucloxacillin sodium] | 109 |
| CCN1CCCC(OC(=O)C(c2ccccc2)c2ccccc2)C1 (stereo not drawn) [Piperidolate hydrochloride] | 88 |
| O=C(O)C1=CO[C@@H](O[C@@H]2O[C@H](CO)[C@@H](O)[C@H](O)[C@H]2O)[C@@H]2C(CO)=CC[C@H]12 [Geniposidic acid] | 101 |
| Cc1ccnc(NS(=O)(=O)c2ccc(NC(=O)Nc3ccc(S(=O)(=O)Nc4nccc(C)n4)cc3)cc2)n1 | 98.2 |
| CC(C)c1ccc2c(c1)CC[C@H]1[C@](C)(CN)CCC[C@]21C [Lylamine hydrochloride] | 27.7 |
| COc1c(C)c2c(c(O)c1C/C=C(\C)CCC(=O)O)C(=O)OC2 [Mycophenolic acid] | 69.7 |
| NS(=O)(=O)c1cc(Cl)c(Cl)c(S(N)(=O)=O)c1 [Dichlorphenamide] | 107 |
| CS(=O)(=O)c1ccc(-c2cnc(N)c(C(=O)Nc3ccccc3)n2)cc1 | 92.1 ± 1.1 |
| CN1CCC(Nc2ncc3ncnc(Nc4ccc(F)c(Cl)c4)c3n2)CC1 [BIBX 1382 dihydrochloride] | 87 |
| COC(=O)Nc1ccc(-c2nc(N3CCOCC3)c3cnn(C4CCN(C(=O)OC)CC4)c3n2)cc1 | 85.9 |
| CNC[C@H](O)[C@@H](O)[C@H](O)[C@H](O)CO [Meglumine] | 107 |
| Nc1ccc(S(=O)(=O)Nc2cnc3ccccc3n2)cc1 [Sulfaquinoxaline sodium salt] | 86.3 |
| NCCCC(O)(P(=O)(O)O)P(=O)(O)O [Alendronate sodium] | 102 |
| NCCCC(O)(P(=O)(O)O)P(=O)(O)O [Alendronate (Fosamax)] | 109 |
| NCCCC(O)(P(=O)(O)O)P(=O)(O)O [Alendronate] | 103 |
